According to the supplement of paper PMC12217912:
The list shows a part of the results. The full chains were built here from the parent and the listed change. Inactive controls read about 0.05.

B1: TEV protease; numbered along this chain (parent)
chain: MGESLFKGPRDYNPISSSICHLTNESDGHTTSLYGIGFGPFIITNKHLFRRNNGTLVVQSLHGVFKVKDTTTLQQHLVDGRDMIIIRMPKDFPPFPQKLKFREPQREERICLVTTNFQTKSMSSMVSDTSCTFPSGDGIFWKHWIQTKDGQCGSPLVSTRDGFIVGIHSASNFTNTNNYFTSVPKNFMELLTNQEAQQWVSGWRLNADSVLWGGHKVFMVKPEEPFQPVKEATQL

Variants of: B1
Experiment: raw area under fraction-flipped curve 0-4 h after induction (AUC4h, not background-subtracted), DNA-recorder readout of cleavage of the substrate (dimensionless); higher = more cleavage of the substrate by the protease variant
Conditions: temperature: 34 °C; time window: 0-4 h after rhamnose induction
Description: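 In vivo DNA recorder in E. coli TOP10(DE3) ΔrhaA at 34 °C. Each TEVp single-site mutant (parent TEVp 0) is paired with a single-site variant of the 7-mer TEVs (canonical ENLYFQ|S). The substrate sits between flexible linkers in a Bxb1-sfGFP-TEVs-SsrA fusion, so cleavage stabilises Bxb1 and speeds flipping of a recombination array, read by NGS. The value is the raw area under the fraction-flipped curve over 0-4 h after rhamnose induction (AUC4h), with ≥20 reads per time point. It is not background-subtracted; inactive controls average about 0.047.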
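Note: Bxb1 expression induced with 0.2% (w/v) L-rhamnose at OD600 near 0.5, cultures sampled hourly, flipped fraction per protease–substrate barcode pair counted by paired-end Illumina sequencing.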

Variant | area with substrate ENLYDQS | area with substrate ENLYEQS | area with substrate ENLYGQS | area with substrate ENLYHQS | area with substrate ENLYIQS | area with substrate ENLYKQS | area with substrate ENLYMQS | area with substrate ENLYNQS | area with substrate ENLYPQS | area with substrate ENLYQQS | area with substrate ENLYRQS | area with substrate ENLYSQS | area with substrate ENLYTQS | area with substrate ENLYVQS | area with substrate ENLYWQS | area with substrate ENLYLQS | area with substrate ENLYYQS
MGESLFKGPRDYNPISSSICHLTNESDGHTTSLYGIGFGPFIITNKHLFRRNNGTLVVQSLHGVFKVKDTTTLQQHLVDGRDMIIIRMPKDFPPFPQKLKFREPQREERICLVTTNFQTKSMSSMVSDTSCTFPSGDGIFWKHWIQTKDIQCGSPLVSTRDGFIVGIHSASNFTNTNNYFTSVPKNFMELLTNQEAQQWVSGWRLNADSVLWGGHKVFMVKPEEPFQPVKEATQL [G150I] | 0.0565 | 0.0591 | 0.0619 | 0.0611 | 0.0475 | 0.0547 | 0.0477 | 0.058 | 0.0382 | 0.0652 | 0.0601 | 0.0628 | 0.0667 | 0.0648 | 0.0524 | – | –
MGESLFKGPRDYNPISSSICHLTNESDGHTTSLYGIGFGPFIITNKHLFRRNNGTLVVQSLHGVFKVKDTTTLQQHLVDGRDMIIIRMPKDFPPFPQKLKFREPQREERICLVTTNFQTSSMSSMVSDTSCTFPSGDGIFWKHWIQTKDGQCGSPLVSTRDGFIVGIHSASNFTNTNNYFTSVPKNFMELLTNQEAQQWVSGWRLNADSVLWGGHKVFMVKPEEPFQPVKEATQL [K120S] | 0.066 | 0.0676 | 0.0604 | 0.0704 | 0.109 | 0.041 | 0.0867 | 0.0785 | 0.067 | 0.0502 | 0.0433 | 0.0737 | – | 0.133 | 0.0792 | – | –
MGESLFKGPRDYNPISSSICHLTNESDGHTTSLYGIGFGPFIITNKHLFRRNNGTLVVQSLHGVFKVKDTTTLQQHLVDGRDMIIIRMPKDFPPFPQKLKFREPQREERICLVTTNFQTKSMSSMVSDTSVTFPSGDGIFWKHWIQTKDGQCGSPLVSTRDGFIVGIHSASNFTNTNNYFTSVPKNFMELLTNQEAQQWVSGWRLNADSVLWGGHKVFMVKPEEPFQPVKEATQL [C131V] | 0.0615 | 0.0648 | – | – | 0.106 | – | 0.107 | – | – | – | 0.0354 | – | – | 0.0389 | – | – | –
MGESLFKGPRDYNPISSSICHLTNESDGHTTSLYGIGFGPFIITNKHLFRRNNGTLVVQSLHGVFKVKDTTTLQQHLVDGRDMIIIRMPKDFPPFPQKLKFREPQREERICLVTTNFQTKSMSSMVSDTSCTAPSGDGIFWKHWIQTKDGQCGSPLVSTRDGFIVGIHSASNFTNTNNYFTSVPKNFMELLTNQEAQQWVSGWRLNADSVLWGGHKVFMVKPEEPFQPVKEATQL [F133A] | 0.0592 | 0.0626 | – | – | 0.119 | 0.0632 | 0.0853 | 0.0728 | 0.0668 | 0.0665 | 0.0618 | – | – | – | 0.0912 | 0.0901 | –
MGESLFKGPRDYNPISSSICHLTNESDGHTTSLYGIGFGPFIITNKHLFRRNNGTLVVQSLHGVFKVKDTTTLQQHLVDGRDMIIIRMPKDFPPFPQKLKFREPQREERICLVTTNFQTKSMSSMVSDTSCTRPSGDGIFWKHWIQTKDGQCGSPLVSTRDGFIVGIHSASNFTNTNNYFTSVPKNFMELLTNQEAQQWVSGWRLNADSVLWGGHKVFMVKPEEPFQPVKEATQL [F133R] | 0.0662 | 0.0773 | 0.0678 | 0.0704 | 0.15 | 0.077 | 0.0985 | 0.0562 | 0.0808 | 0.0589 | 0.0685 | 0.0856 | 0.104 | – | 0.0936 | – | 0.0591
MGESLFKGPRDYNPISSSICHLTNESDGHTTSLYGIGFGPFIITNKHLFRRNNGTLVVQSLHGVFKVKDTTTLQQHLVDGRDMIIIRMPKDFPPFPQKLKFREPQREERICLVTTNFQTKSMSSMVSDNSCTFPSGDGIFWKHWIQTKDGQCGSPLVSTRDGFIVGIHSASNFTNTNNYFTSVPKNFMELLTNQEAQQWVSGWRLNADSVLWGGHKVFMVKPEEPFQPVKEATQL [T129N] | 0.066 | 0.0657 | 0.0775 | 0.0545 | 0.205 | 0.0448 | 0.0775 | 0.0664 | 0.102 | 0.0702 | 0.0553 | – | – | 0.156 | 0.0796 | – | –
MGESLFKGPRDYNPISSSICHLTNESDGHTTSLYGIGFGPFIITNKHLFRRNNGTLVVQSLHGVFKVKDTTTLQQHLVDGRDMIIIRMPKDFPPFPQKLKFREPQREERICLVTTNFQTKSMSSMVSDTSCTFPSGDGIFEKHWIQTKDGQCGSPLVSTRDGFIVGIHSASNFTNTNNYFTSVPKNFMELLTNQEAQQWVSGWRLNADSVLWGGHKVFMVKPEEPFQPVKEATQL [W141E] | 0.0516 | – | – | 0.0584 | 0.0621 | 0.0306 | 0.0555 | – | 0.0603 | 0.0503 | 0.0502 | 0.0481 | 0.0361 | – | 0.0535 | – | –
MGESLFKGPRDYNPISSSICHLTNESDGHTTSLYGIGFGPFIITNKHLFRRNNGTLVVQSLHGVFKVKDTTTLQQHLVDGRDMIIIRMPKDFPPFPQKLKFREPQREERICLVTTNFQTKSMSSMVSDTSCTFPSGDGIFWKHWIQTHDGQCGSPLVSTRDGFIVGIHSASNFTNTNNYFTSVPKNFMELLTNQEAQQWVSGWRLNADSVLWGGHKVFMVKPEEPFQPVKEATQL [K148H] | 0.0681 | 0.0717 | 0.0577 | 0.0714 | – | 0.056 | 0.0881 | – | 0.0692 | 0.0321 | 0.0637 | 0.0612 | 0.0662 | 0.0992 | – | 0.0786 | 0.059
MGESLFKGPRDYNPISSSICHLTNESDGHTTSLYGIGFGPFIITNKHLFRRNNGTLVVQSLHGVFKVKDTTTLQQHLVDGRDMIIIRMPKDFPPFPQKLKFREPQREERICLVTTNFQTKSMSSMVSDTSCTFPSGDKIFWKHWIQTKDGQCGSPLVSTRDGFIVGIHSASNFTNTNNYFTSVPKNFMELLTNQEAQQWVSGWRLNADSVLWGGHKVFMVKPEEPFQPVKEATQL [G138K] | 0.0616 | 0.0754 | 0.0622 | 0.0755 | 0.104 | 0.0696 | 0.0673 | 0.0644 | – | – | – | 0.0726 | 0.0901 | 0.0999 | 0.0567 | – | –
